Laboratory results from the supplement of paper PMC4604168 (melanoma cell lines).
Some of the results follow. Many values rest on one well or one pass, so single values are uncertain.

Tested on: COLO829
Assay: cell count relative to DMSO control; melanoma cells; higher = more viable cells
Conditions: library dose: standard library concentration; 72 h
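Also: cells treated in 1,536-well plates, then fixed and DAPI-stained, with nuclei counted from automated high-throughput microscope images.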

How did the cell count turn out when Cn1cc(/C=C2\C(=O)Nc3cccnc32)c2ccccc21 + CCCCCCCCCCCC1=C(O)C(=O)C=C(O)C1=O [Embelin] (first compound 2 µM, partner dose 6 µM) was run?
Its cell count is 62.8%.

COc1ccc2c(c1)CCC1C2CCC2(C)C(NCCCCCCN3C(=O)C=CC3=O)CCC12 (centres undefined) + CCCCCCCCCCCC1=C(O)C(=O)C=C(O)C1=O [Embelin] (first compound 2 µM, partner dose 6 µM) was tested. Which cell count did it give?
The cell count was 73.8%.

How did the cell count turn out when COc1cc2ncnc(Nc3ccc(Oc4ccccc4)cc3)c2cc1OC + Cn1cc(/C=C2\C(=O)Nc3cccnc32)c2ccccc21 [GW441756] (first compound 10 µM, partner dose 2 µM) was run?
Its cell count is 98.9%.

Which cell count does the source give for Cc1cc([N+](=O)[O-])ccc1NS(=O)(=O)c1cc(Cl)ccc1Cl + COc1cc(N2CCC(N3CCN(C)CC3)CC2)ccc1Nc1ncc(Cl)c(Nc2ccccc2S(=O)(=O)C(C)C)n1 [NVP-TAE684] (first compound 5 µM, partner dose 0.4 µM) here?
The cell count was 99.9%.

For N#Cc1c(O)c2c(-c3ccc(-c4ccccc4O)cc3)csc2[nH]c1=O + COc1cc(N2CCC(N3CCN(C)CC3)CC2)ccc1Nc1ncc(Cl)c(Nc2ccccc2S(=O)(=O)C(C)C)n1 [NVP-TAE684] (first compound 10 µM, partner dose 0.4 µM), which cell count is on record?
The cell count was 116%.

How did the cell count turn out when O=S(=O)(c1ccccc1)N(CC(F)(F)F)c1ccc(C(O)(C(F)(F)F)C(F)(F)F)cc1 + Cc1cc([N+](=O)[O-])ccc1NS(=O)(=O)c1cc(Cl)ccc1Cl [FH535] (first compound 7 µM, partner dose 5 µM) was run?
Its cell count is 64.4%.

For COc1ccc(-c2ccc3c(N4CCOCC4)nc(N4C[C@@H](C)O[C@@H](C)C4)nc3n2)cc1CO + Oc1nc(-c2ccc(C(F)(F)F)cc2)nc2c1CSCC2 [XAV939] (first compound 0.1 µM, partner dose 10 µM), which cell count is on record?
Its cell count is 70.5%.

COc1ccc(-c2ccc3c(N4CCOCC4)nc(N4C[C@@H](C)O[C@@H](C)C4)nc3n2)cc1CO + O=C1NC(=O)/C(=C/c2ccc(-c3ccc(F)cc3O)o2)S1 [AS252424] (first compound 0.1 µM, partner dose 5 µM) was tested. Which cell count did it give?
The cell count was 93.1%.

For COC(=O)c1sccc1S(=O)(=O)Nc1ccc(Nc2ccccc2)cc1OC + Cc1cc([N+](=O)[O-])ccc1NS(=O)(=O)c1cc(Cl)ccc1Cl [FH535] (first compound 5 µM, partner dose 5 µM), which cell count is on record?
Its cell count is 91%.

How did the cell count turn out when CCN(CC)CCCCNc1ncc2cc(-c3cc(OC)cc(OC)c3)c(NC(=O)NC(C)(C)C)nc2n1 + Cn1cc(/C=C2\C(=O)Nc3cccnc32)c2ccccc21 [GW441756] (first compound 0.5 µM, partner dose 2 µM) was run?
Its cell count is 103%.

CCN(CC)CCCCNc1ncc2cc(-c3cc(OC)cc(OC)c3)c(NC(=O)NC(C)(C)C)nc2n1 + c1cc(-c2cnn3cc(-c4ccc(OCCN5CCCCC5)cc4)cnc23)ccn1 [Dorsomorphin] (first compound 0.5 µM, partner dose 2 µM) was tested. Which cell count did it give?
The cell count was 101%.

Which cell count does the source give for CCN(CC)CCCCNc1ncc2cc(-c3cc(OC)cc(OC)c3)c(NC(=O)NC(C)(C)C)nc2n1 + O=C(O)C(=O)Nc1sc2c(c1C(=O)O)CCNC2 [TCS401] (first compound 0.5 µM, partner dose 8.33333 µM) here?
The cell count was 129%.

For COc1ccc(COc2ccc(Cc3cnc(N)nc3N)cc2OC)cc1 + O=S(=O)(c1ccccc1)N(CC(F)(F)F)c1ccc(C(O)(C(F)(F)F)C(F)(F)F)cc1 [T0901317] (first compound 5 µM, partner dose 7 µM), which cell count is on record?
The cell count was 96.5%.

O=S(=O)(c1ccccc1)N(CC(F)(F)F)c1ccc(C(O)(C(F)(F)F)C(F)(F)F)cc1 + Cn1cc(/C=C2\C(=O)Nc3cccnc32)c2ccccc21 [GW441756] (first compound 7 µM, partner dose 2 µM) was tested. Which cell count did it give?
The cell count was 82%.

Cn1cc(/C=C2\C(=O)Nc3cccnc32)c2ccccc21 + CC(C)CCN1c2nc(Nc3cc(F)c(O)c(F)c3)ncc2N(C)C(=O)C1C [BID1870] (first compound 2 µM, partner dose 1 µM) was tested. Which cell count did it give?
Its cell count is 108%.

Which cell count does the source give for COC(=O)c1sccc1S(=O)(=O)Nc1ccc(Nc2ccccc2)cc1OC + COc1cc2ncnc(Nc3ccc(Oc4ccccc4)cc3)c2cc1OC [SrcI1] (first compound 5 µM, partner dose 10 µM) here?
Its cell count is 130%.

With O=S(=O)(c1ccccc1)N(CC(F)(F)F)c1ccc(C(O)(C(F)(F)F)C(F)(F)F)cc1 + CCCCCCCCCCCC1=C(O)C(=O)C=C(O)C1=O [Embelin] (first compound 7 µM, partner dose 6 µM) as the molecule, how does the cell count read?
Its cell count is 61.1%.

N#Cc1c(O)c2c(-c3ccc(-c4ccccc4O)cc3)csc2[nH]c1=O + COc1ccc(-c2ccc3c(N4CCOCC4)nc(N4C[C@@H](C)O[C@@H](C)C4)nc3n2)cc1CO [KU0063794] (first compound 10 µM, partner dose 0.1 µM) was tested. Which cell count did it give?
The cell count was 90.6%.

With COc1ccc2c(c1)CCC1C2CCC2(C)C(NCCCCCCN3C(=O)C=CC3=O)CCC12 (centres undefined) + CC(C)CCN1c2nc(Nc3cc(F)c(O)c(F)c3)ncc2N(C)C(=O)C1C [BID1870] (first compound 2 µM, partner dose 1 µM) as the molecule, how does the cell count read?
Its cell count is 89.9%.

Which cell count does the source give for Oc1cc(-c2nc(-c3ccccc3)[nH]c2-c2ccncc2)ccc1Cl + O=C1NC(=O)/C(=C/c2ccc(-c3ccc(F)cc3O)o2)S1 [AS252424] (first compound 1 µM, partner dose 5 µM) here?
Its cell count is 64.4%.

For COc1ccc2c(c1)CCC1C2CCC2(C)C(NCCCCCCN3C(=O)C=CC3=O)CCC12 (centres undefined) + c1cc(-c2cnn3cc(-c4ccc(OCCN5CCCCC5)cc4)cnc23)ccn1 [Dorsomorphin] (first compound 2 µM, partner dose 2 µM), which cell count is on record?
The cell count was 93.8%.

How did the cell count turn out when Cn1cc(/C=C2\C(=O)Nc3cccnc32)c2ccccc21 + O=c1cc(-c2cccc3c2Sc2ccccc2S3)oc(N2CCOCC2)c1 [KU55933] (first compound 2 µM, partner dose 5 µM) was run?
The cell count was 97%.

How did the cell count turn out when O=S(=O)(c1ccccc1)N(CC(F)(F)F)c1ccc(C(O)(C(F)(F)F)C(F)(F)F)cc1 + O=c1cc(-c2cccc3c2Sc2ccccc2S3)oc(N2CCOCC2)c1 [KU55933] (first compound 7 µM, partner dose 5 µM) was run?
The cell count was 82.9%.

COc1ccc(COc2ccc(Cc3cnc(N)nc3N)cc2OC)cc1 + Oc1cc(-c2nc(-c3ccccc3)[nH]c2-c2ccncc2)ccc1Cl [L779450] (first compound 5 µM, partner dose 1 µM) was tested. Which cell count did it give?
Its cell count is 74.3%.

How did the cell count turn out when N#Cc1c(O)c2c(-c3ccc(-c4ccccc4O)cc3)csc2[nH]c1=O + c1cc(-c2cnn3cc(-c4ccc(OCCN5CCCCC5)cc4)cnc23)ccn1 [Dorsomorphin] (first compound 10 µM, partner dose 2 µM) was run?
The cell count was 105%.

How did the cell count turn out when Oc1nc(-c2ccc(C(F)(F)F)cc2)nc2c1CSCC2 + COc1cc(N2CCC(N3CCN(C)CC3)CC2)ccc1Nc1ncc(Cl)c(Nc2ccccc2S(=O)(=O)C(C)C)n1 [NVP-TAE684] (first compound 10 µM, partner dose 0.4 µM) was run?
Its cell count is 92.8%.

For COc1ccc(-c2ccc3c(N4CCOCC4)nc(N4C[C@@H](C)O[C@@H](C)C4)nc3n2)cc1CO + O=S(=O)(c1ccccc1)N(CC(F)(F)F)c1ccc(C(O)(C(F)(F)F)C(F)(F)F)cc1 [T0901317] (first compound 0.1 µM, partner dose 7 µM), which cell count is on record?
The cell count was 82.3%.

With COc1ccc(COc2ccc(Cc3cnc(N)nc3N)cc2OC)cc1 + CC(C)CCN1c2nc(Nc3cc(F)c(O)c(F)c3)ncc2N(C)C(=O)C1C [BID1870] (first compound 5 µM, partner dose 1 µM) as the molecule, how does the cell count read?
The cell count was 112%.

With c1cc(-c2cnn3cc(-c4ccc(OCCN5CCCCC5)cc4)cnc23)ccn1 [Dorsomorphin] + CC(C)CCN1c2nc(Nc3cc(F)c(O)c(F)c3)ncc2N(C)C(=O)C1C [BID1870] (first compound 2 µM, partner dose 1 µM) as the molecule, how does the cell count read?
The cell count was 79.6%.

How did the cell count turn out when N#Cc1c(O)c2c(-c3ccc(-c4ccccc4O)cc3)csc2[nH]c1=O + O=c1cc(-c2cccc3c2Sc2ccccc2S3)oc(N2CCOCC2)c1 [KU55933] (first compound 10 µM, partner dose 5 µM) was run?
The cell count was 155%.

Which cell count does the source give for N#Cc1c(O)c2c(-c3ccc(-c4ccccc4O)cc3)csc2[nH]c1=O + CCN(CC)CCCCNc1ncc2cc(-c3cc(OC)cc(OC)c3)c(NC(=O)NC(C)(C)C)nc2n1 [PD173074] (first compound 10 µM, partner dose 0.5 µM) here?
Its cell count is 99.9%.

With Oc1cc(-c2nc(-c3ccccc3)[nH]c2-c2ccncc2)ccc1Cl + Oc1nc(-c2ccc(C(F)(F)F)cc2)nc2c1CSCC2 [XAV939] (first compound 1 µM, partner dose 10 µM) as the molecule, how does the cell count read?
The cell count was 83%.

Which cell count does the source give for O=S(=O)(c1ccccc1)N(CC(F)(F)F)c1ccc(C(O)(C(F)(F)F)C(F)(F)F)cc1 + Oc1cc(-c2nc(-c3ccccc3)[nH]c2-c2ccncc2)ccc1Cl [L779450] (first compound 7 µM, partner dose 1 µM) here?
Its cell count is 70.9%.

N#Cc1c(O)c2c(-c3ccc(-c4ccccc4O)cc3)csc2[nH]c1=O + Oc1cc(-c2nc(-c3ccccc3)[nH]c2-c2ccncc2)ccc1Cl [L779450] (first compound 10 µM, partner dose 1 µM) was tested. Which cell count did it give?
Its cell count is 89.2%.
